In the RNAGym collection of RNA variant scans (doi:10.1093/nar/gkz1192):
Read counts are not given, so values of variants with three or more changes are uncertain.

B1: CPEB3 Ribozyme (parent)
chain: UAACAGGGGGCCACAGCAGAAGCGUUCACGUCGCAGCCCCUGUCAGAUUCUGGUGAAUCUGCGAAUUCUGCUGUAUAUCUC

Variants of: B1
Assay: self-cleavage, relative activity (ratio to wild type); higher = more cleavage; in vitro, sequencing
Outline: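 Relative activity compares each variant's cleaved/total read fraction with that of the unmutated ribozyme. To get these fractions, barcoded CPEB3 ribozyme libraries from rounds of error-prone PCR were transcribed with T7 RNA polymerase for 5 hours at 37°C and then given 15 min of DNase I treatment before EDTA was added. The RNAs were reverse transcribed with template switching and sequenced on Illumina, and DNA sequencing linked barcodes to variants. A minimum of 5 reads applied, and three batches were averaged.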
With U26C C29U U76A the self-cleavage was 0.31.
With U26C C32G U41C the self-cleavage was 0.08.
Work on U26C C32U A35G U51A U78A yielded a self-cleavage of 0.18.
Variant U26C C32U A35U A47G U51C has a self-cleavage of 0.05.
U26C C32U A64C gave a self-cleavage of 0.18.
U26C C32U G33A A45G showed a self-cleavage of 0.24.
U26C C32U U41C U58C A64U A65U U74C showed a self-cleavage of 0.07.
Variant U26C C32U U69C has a self-cleavage of 0.61.
With U26C C32U U78A the self-cleavage was 0.19.
With U26C C34A U60C G73A U78G the self-cleavage was 0.08.
Work on U26C C34G A65U yielded a self-cleavage of 0.22.
Variant U26C C34U A45G A56G U74C U80C has a self-cleavage of 0.19.
Variant U26C C34U A57G has a self-cleavage of 0.28.
With U26C C34U U41A the self-cleavage was 0.1.
In the case of U26C C37A U43C A64G, the self-cleavage is reported as 0.05.
U26C C37A U51C A57G showed a self-cleavage of 0.16.
Variant U26C C37G A47G U51A A56G C62A has a self-cleavage of 0.1.
U26C C37U A45G U67C gave a self-cleavage of 0.1.
With U26C C37U C44U U54C the self-cleavage was 0.08.
Work on U26C C37U U54C yielded a self-cleavage of 0.19.
U26C C38A A57G U58C U69A showed a self-cleavage of 0.14.
In the case of U26C C38G U41C U43A U76C, the self-cleavage is reported as 0.11.
With U26C C38U A64G the self-cleavage was 0.09.
U26C C38U G61U A64G U66C U80C showed a self-cleavage of 0.28.
U26C C38U U54A gave a self-cleavage of 0.11.
U26C C39G C59A gave a self-cleavage of 0.12.
In the case of U26C C39U A45C A56G U72C, the self-cleavage is reported as 0.16.
In the case of U26C C39U U54A A64G, the self-cleavage is reported as 0.2.
Work on U26C C40A A56G yielded a self-cleavage of 0.16.
Work on U26C C40A A64G yielded a self-cleavage of 0.52.
U26C C40A U41C A47G A57G A64G gave a self-cleavage of 0.12.
U26C C40A U49C A56G U80G gave a self-cleavage of 0.06.
In the case of U26C C40U G53A A57C, the self-cleavage is reported as 0.18.
Work on U26C C40U U54A yielded a self-cleavage of 0.38.
In the case of U26C C40U U54C U80C, the self-cleavage is reported as 0.16.
With U26C C44A A47G U66C the self-cleavage was 0.1.
Work on U26C C44A C68U U72A yielded a self-cleavage of 0.14.
For U26C C44U A47U U48C U78C, the self-cleavage was 0.16.
U26C C44U U60C G61U U80C showed a self-cleavage of 0.18.
For U26C C44U U67A, the self-cleavage was 0.07.
With U26C C50G A57G U67C the self-cleavage was 0.12.
Variant U26C C50U U60C has a self-cleavage of 0.08.
Variant U26C C59G U69C has a self-cleavage of 0.09.
With U26C C62G U80C the self-cleavage was 0.22.
U26C C62U U66C U80A showed a self-cleavage of 0.06.
Variant U26C C68U U80C has a self-cleavage of 0.57.
Work on U26C G30A A47G G70A U80C yielded a self-cleavage of 0.07.
For U26C G30A C44U A47U C59A U67C, the self-cleavage was 0.04.
Variant U26C G30A U31G U41C U69G U74C has a self-cleavage of 0.08.
Variant U26C G30A U41C A56G A57G U67C has a self-cleavage of 0.07.
In the case of U26C G30A U51C A57U U78A, the self-cleavage is reported as 0.09.
With U26C G30A U51C U72A the self-cleavage was 0.27.
U26C G30C A56G U58A A77U U80C gave a self-cleavage of 0.1.
Work on U26C G30C U31C A45U U51C A56G U69C yielded a self-cleavage of 0.14.
For U26C G30C U67C U69C C79U, the self-cleavage was 0.08.
U26C G30U A56G gave a self-cleavage of 0.08.
For U26C G30U U72A U74C, the self-cleavage was 0.17.
Variant U26C G33A A45G A56G has a self-cleavage of 0.1.
In the case of U26C G33A A47G U69A, the self-cleavage is reported as 0.23.
With U26C G33A A64G U72A the self-cleavage was 0.1.
Variant U26C G33A U60C U66G has a self-cleavage of 0.09.
For U26C G33C U43C U48C A65U, the self-cleavage was 0.09.
For U26C G33U A45U U49C C68U, the self-cleavage was 0.04.
In the case of U26C G33U A57G A65G, the self-cleavage is reported as 0.45.
U26C G36A G42A C44A U49C A65G gave a self-cleavage of 0.06.
With U26C G36A G42U the self-cleavage was 0.04.
Work on U26C G36A U51A U67G U76G yielded a self-cleavage of 0.05.
U26C G36C U41C gave a self-cleavage of 0.25.
With U26C G36C U76A the self-cleavage was 0.19.
U26C G36U A47G showed a self-cleavage of 0.16.
With U26C G42A U48C the self-cleavage was 0.25.
U26C G42A U69C showed a self-cleavage of 0.09.
Variant U26C G46A U48C C50A U66G has a self-cleavage of 0.
For U26C G52A U74A U80A, the self-cleavage was 0.89.
Variant U26C G53A U74C has a self-cleavage of 0.89.
Variant U26C G61A A65G U72G has a self-cleavage of 0.1.
In the case of U26C G61C A64G A75U, the self-cleavage is reported as 0.04.
With U26C G63U U72C the self-cleavage was 0.75.
For U26C U31A A45C U78C, the self-cleavage was 0.36.
For U26C U31A A45G, the self-cleavage was 0.43.
U26C U31A A47U showed a self-cleavage of 0.1.
U26C U31A G42A A56U U74C gave a self-cleavage of 0.07.
Variant U26C U31A U41A A56G A64U U72A has a self-cleavage of 0.18.
U26C U31A U41C U49C gave a self-cleavage of 0.14.
U26C U31A U43C U54A showed a self-cleavage of 0.34.
With U26C U31A U51G G52A G53A A64U U72G the self-cleavage was 0.07.
Work on U26C U31A U60A yielded a self-cleavage of 0.11.
U26C U31A U60C gave a self-cleavage of 0.11.
Work on U26C U31A U60C U66C yielded a self-cleavage of 0.09.
U26C U31A U74C U76A gave a self-cleavage of 0.14.
For U26C U31A U80C, the self-cleavage was 0.38.
U26C U31C A45C U72A gave a self-cleavage of 0.19.
For U26C U31C A45G U76C, the self-cleavage was 0.11.
Work on U26C U31C A64G yielded a self-cleavage of 0.17.
With U26C U31C A77G U80C the self-cleavage was 0.26.
In the case of U26C U31C C32U U41A U51C A56G, the self-cleavage is reported as 0.14.
In the case of U26C U31C C38U U41A U51A, the self-cleavage is reported as 0.12.
U26C U31C C39A showed a self-cleavage of 0.11.
U26C U31C C40A A47U A56G gave a self-cleavage of 0.33.
Work on U26C U31C C68U U78C yielded a self-cleavage of 0.3.
For U26C U31C G33U, the self-cleavage was 0.09.
For U26C U31C G53U U54C, the self-cleavage was 0.32.
Variant U26C U31C U41C A45G has a self-cleavage of 0.07.
Variant U26C U31C U43C has a self-cleavage of 0.59.
U26C U31G G46A A56U U78A gave a self-cleavage of 0.14.
Work on U26C U41A A45G U76C yielded a self-cleavage of 0.08.
U26C U41A A56G U60C U72A showed a self-cleavage of 0.14.
For U26C U41A A65C, the self-cleavage was 0.09.
With U26C U41A A65G U69C C81U the self-cleavage was 0.05.
Variant U26C U41A G42A A56G U58C A77G U78A has a self-cleavage of 0.08.
Variant U26C U41A G55A A57G A65U has a self-cleavage of 0.13.
U26C U41A U43A A45G U80C showed a self-cleavage of 0.37.
Variant U26C U41A U48C U66C A75G has a self-cleavage of 0.06.
In the case of U26C U41A U51C U67C C68A, the self-cleavage is reported as 0.25.
For U26C U41A U60A U78A, the self-cleavage was 0.08.
U26C U41A U74A A75G showed a self-cleavage of 0.29.
With U26C U41A U74C U78G the self-cleavage was 0.34.
Work on U26C U41C A45G U49C A56G A77U yielded a self-cleavage of 0.07.
With U26C U41C A56U the self-cleavage was 0.14.
U26C U41C A57G U60C U69A U72A U80C showed a self-cleavage of 0.19.
U26C U41C A64G gave a self-cleavage of 0.24.
With U26C U41C A64U the self-cleavage was 0.27.
For U26C U41C A65G U76C, the self-cleavage was 0.17.
Work on U26C U41C A77G yielded a self-cleavage of 0.47.
Variant U26C U41C C44A A45G G53A has a self-cleavage of 0.22.
U26C U41C G42C showed a self-cleavage of 0.27.
Variant U26C U41C G42C U69C A77G U80A has a self-cleavage of 0.15.
U26C U41C G73A showed a self-cleavage of 0.79.
In the case of U26C U41C U48C U67C G73U, the self-cleavage is reported as 0.3.
With U26C U41C U49C U51A A75U the self-cleavage was 0.24.
Variant U26C U41C U51A C79A has a self-cleavage of 0.65.
For U26C U41C U51A U54A U69C, the self-cleavage was 0.15.
Work on U26C U41C U54C yielded a self-cleavage of 0.39.
U26C U41C U60A showed a self-cleavage of 0.33.
Variant U26C U41C U60A U72A U78C has a self-cleavage of 0.15.
In the case of U26C U41C U60C A64U U72G, the self-cleavage is reported as 0.11.
Work on U26C U41C U69C yielded a self-cleavage of 0.22.
For U26C U43A A45G A47U U48A, the self-cleavage was 0.
Variant U26C U43A A45G G53A U69C G73C has a self-cleavage of 0.06.
Work on U26C U43A A56U yielded a self-cleavage of 0.11.
With U26C U43A U54C U60A the self-cleavage was 0.13.
With U26C U43C A45G the self-cleavage was 0.5.
For U26C U43C A45U U66C, the self-cleavage was 0.26.
U26C U43C A57G U67C U72A showed a self-cleavage of 0.07.
U26C U43C C44U U49C U67C gave a self-cleavage of 0.08.
Work on U26C U43C G61U G70U yielded a self-cleavage of 0.12.
U26C U43C G61U U69A U80C gave a self-cleavage of 0.18.
For U26C U43C G70U, the self-cleavage was 0.26.
For U26C U43C U48C U74C, the self-cleavage was 0.36.
Variant U26C U43C U48C U74C U78C has a self-cleavage of 0.24.
U26C U43C U49C A56U U58C showed a self-cleavage of 0.12.
For U26C U43C U51C, the self-cleavage was 0.88.
Variant U26C U43C U60A has a self-cleavage of 0.27.
U26C U43C U66C U69C G73A gave a self-cleavage of 0.09.
Work on U26C U43C U67A yielded a self-cleavage of 0.41.
U26C U43C U67C gave a self-cleavage of 0.23.
U26C U43C U69A gave a self-cleavage of 0.29.
For U26C U43C U78C, the self-cleavage was 0.48.
Variant U26C U43G U49C U60A U67C U80C has a self-cleavage of 0.05.
With U26C U48A G53U the self-cleavage was 0.16.
U26C U48A G55C gave a self-cleavage of 0.15.
Work on U26C U48A U76C A77U yielded a self-cleavage of 0.18.
U26C U48C A64G U69C showed a self-cleavage of 0.14.
For U26C U48C U60A U78C, the self-cleavage was 0.17.
Variant U26C U48C U72A has a self-cleavage of 0.26.
With U26C U48C U78C the self-cleavage was 0.48.
U26C U48G G63A gave a self-cleavage of 0.11.
